The values that follow come from the supplement of paper PMC10037445.

Each structure is given as a SMILES string. Values joined by “and” are separate entries in the source; they are usually repeats but may differ in a detail not shown here. Equal values may be shown once. Whole data set: some 2,900 compounds, median “IRF Lucia reporter activity, fold change vs agonist alone” near 0.9, cut for the highest 2% near 2.8. The list shows a part of the results.

Assay [1] relates to RAW-Dual. As to the kind of experiment: IRF Lucia reporter activity, fold change vs agonist alone; cytotoxicity flag (confluency mask): not cytotoxic; higher = enhanced IRF activity. An outline of the steps: (§1)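 Reporter activity is given as fold change relative to agonist-alone wells. To measure it, 50 nL of library stock was pin-tooled onto RAW-Dual macrophages (50,000 cells/well, DMEM, 384-well plates), a PRR agonist followed 1 h later, and cells stayed at 37 °C, 5% CO2. Twenty hours on, supernatant was assayed for IRF (QuantiLuc luminescence) and NF-κB (QuantiBlue, 620 nm absorbance), and wells under 70% of agonist-control IncuCyte confluency in both mask sets were marked cytotoxic.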

Assay [2] concerns RAW-Dual. As to the kind of experiment: IRF Lucia reporter activity, fold change vs agonist alone; cytotoxicity flag (confluency mask): cytotoxic (confluency <70% of control); higher = enhanced IRF activity. An outline of the steps:
as §1

Assay [3] has as its system RAW-Dual. As to the kind of experiment: IRF Lucia reporter activity, fold change vs agonist alone; higher = enhanced IRF activity. Conditions: library stock concentration (final ~1000-fold dilution): 10 mM, agonist: MPLA (TLR4) […]. An outline of the steps:
as §1

[4] abbreviates: agonist: 3'3'-cGAMP (STING) 10 ug/mL.
The mark [5] stands for this setting: cytotoxicity flag (confluency mask): not cytotoxic.
Setting [6] is: cytotoxicity flag (confluency mask): cytotoxic (confluency <70% of control).

On to `COc1cc(C=CC(=O)OCC[N+](C)(C)C)cc(OC)c1O` (library stock concentration (final ~1000-fold dilution): 10 mM), for which the “IRF Lucia reporter activity” value with RAW-Dual [1] (setting [4]) stood at 0.894; in the assay with RAW-Dual [1] (agonist: LPS (TLR4) 0.1 ug/mL), 1.04.
On to `Cc1ccc(CN(CC(O)COc2cccc3[nH]ccc23)C(C)(C)C)cc1` (configuration not stated) (library stock concentration (final ~1000-fold dilution): 10 mM), for which the “IRF Lucia reporter activity” value in the assay on RAW-Dual [2] (setting [4]) came to 0.837; in the assay with RAW-Dual [2] (agonist: LPS (TLR4) 0.1 ug/mL) it was 1.9.
As for `Cl.Cl.NC1(c2ccc(-c3nc4ccn5c(=O)[nH]nc5c4cc3-c3ccccc3)cc2)CCC1`, in the assay with RAW-Dual [3] (setting [5]), the “IRF Lucia reporter activity” value was determined as 2.08.
Turning to `Cl.Cl.NC1(c2ccc(-c3nc4ccn5c(=O)[nH]nc5c4cc3-c3ccccc3)cc2)CCC1` (library stock concentration (final ~1000-fold dilution): 10 mM), the “IRF Lucia reporter activity” value worked out at 1.29 in the assay on RAW-Dual [1] (setting [4]) and 0.181 with RAW-Dual [1] (agonist: LPS (TLR4) 0.1 ug/mL).
For `O=c1cc(-c2ccc(O)cc2)oc2cccc(O)c12` (library stock concentration (final ~1000-fold dilution): 10 mM), the “IRF Lucia reporter activity” value in the assay with RAW-Dual [1] (setting [4]) is 0.167; with RAW-Dual [1] (agonist: LPS (TLR4) 0.1 ug/mL) it was 0.482.
The matching figures for `COc1cc(C(N)=O)nc(-c2cccc(C#C[C@]3(O)CCN(C)C3=O)c2)c1` (library stock concentration (final ~1000-fold dilution): 10 mM): 0.0732 and 0.256.
Consider `O=C(NCCCNc1nc(Nc2cccc(CN3CCOCC3)c2)ncc1C1CC1)C1CCC1` (library stock concentration (final ~1000-fold dilution): 10 mM), for which the “IRF Lucia reporter activity” value with RAW-Dual [1] (setting [4]) was 0.0197 and 0.0115; in the assay with RAW-Dual [1] (agonist: LPS (TLR4) 0.1 ug/mL), 0.0224 and 0.0156.
As for `CC12CCC(CC1)C(C)(C)O2`, the “IRF Lucia reporter activity” value in the assay with RAW-Dual [3] (setting [5]) was determined as 1.16.
Take `CC12CCC(CC1)C(C)(C)O2` (library stock concentration (final ~1000-fold dilution): 10 mM): the “IRF Lucia reporter activity” value in the assay on RAW-Dual [1] (setting [4]) was determined as 1.15; in the assay on RAW-Dual [1] (agonist: LPS (TLR4) 0.1 ug/mL), 1.21.
With `CN1CCN(CCOc2cc(OC3CCOCC3)c3c(Nc4c(Cl)ccc5c4OCO5)ncnc3c2)CC1`, the “IRF Lucia reporter activity” value in the assay with RAW-Dual [3] (setting [6]) is 0.802.
Turning to `CN1CCN(CCOc2cc(OC3CCOCC3)c3c(Nc4c(Cl)ccc5c4OCO5)ncnc3c2)CC1` (library stock concentration (final ~1000-fold dilution): 10 mM), the “IRF Lucia reporter activity” value in the assay with RAW-Dual [2] (setting [4]) was 0.331; with RAW-Dual [2] (agonist: LPS (TLR4) 0.1 ug/mL), 0.204.
On to `COc1c(O)c(C)cc2c1C(=O)c1c(O)cccc1C2=O` (library stock concentration (final ~1000-fold dilution): 10 mM), for which the “IRF Lucia reporter activity” value in the assay with RAW-Dual [1] (setting [4]) stood at 1.11; in the assay with RAW-Dual [1] (agonist: LPS (TLR4) 0.1 ug/mL), 0.872.
Taken in the same sequence, the figures for `O=C(NCC1CN(c2ccc(N3CCOCC3=O)cc2)C(=O)O1)c1ccc(Cl)s1` (configuration not stated) (library stock concentration (final ~1000-fold dilution): 10 mM) were 1.05 and 1.16.
For the molecule `O=C(NCC1CN(c2ccc(N3CCOCC3=O)cc2)C(=O)O1)c1ccc(Cl)s1` (configuration not stated), the “IRF Lucia reporter activity” value with RAW-Dual [3] (setting [5]) was 1.07.
Turning to `Nc1ccc(S(=O)(=O)Nc2ccnn2-c2ccccc2)cc1` (library stock concentration (final ~1000-fold dilution): 10 mM), the results for the “IRF Lucia reporter activity” value in the assay on RAW-Dual [1] (setting [4]) and with RAW-Dual [1] (agonist: LPS (TLR4) 0.1 ug/mL) were 1.09 and 0.99, respectively.
On to `Nc1ccc(S(=O)(=O)Nc2ccnn2-c2ccccc2)cc1`, for which, in the assay on RAW-Dual [3] (setting [5]), the “IRF Lucia reporter activity” value stood at 0.994.
Turning to `Cc1ccc(NC(=O)c2ccc(CN3CCC(N(C)C)C3)c(C(F)(F)F)c2)cc1Nc1nccc(-c2cncnc2)n1` (configuration not stated) (library stock concentration (final ~1000-fold dilution): 10 mM), the results for the “IRF Lucia reporter activity” value with RAW-Dual [2] (setting [4]) and in the assay with RAW-Dual [2] (agonist: LPS (TLR4) 0.1 ug/mL) were 0.138 and 0.0236, respectively.
Consider `Cc1ccc(NC(=O)c2ccc(CN3CCC(N(C)C)C3)c(C(F)(F)F)c2)cc1Nc1nccc(-c2cncnc2)n1` (configuration not stated), for which the “IRF Lucia reporter activity” value with RAW-Dual [3] (setting [6]) amounted to 0.195.
Take `CC1(Cn2ccnn2)C(C(=O)O)N2C(=O)CC2S1(=O)=O` (configuration not stated) (library stock concentration (final ~1000-fold dilution): 10 mM): the “IRF Lucia reporter activity” value in the assay on RAW-Dual [1] (setting [4]) was determined as 0.987; in the assay with RAW-Dual [1] (agonist: LPS (TLR4) 0.1 ug/mL), 1.04.
As for `CC1(Cn2ccnn2)C(C(=O)O)N2C(=O)CC2S1(=O)=O` (configuration not stated), the “IRF Lucia reporter activity” value in the assay on RAW-Dual [3] (setting [5]) is 0.989.
Regarding `CCOCC(O)COc1ccc(NC(=O)CC[S+](C)C)cc1` (configuration not stated) (library stock concentration (final ~1000-fold dilution): 10 mM), the “IRF Lucia reporter activity” value amounted to 0.807 in the assay with RAW-Dual [1] (setting [4]) and 0.648 with RAW-Dual [1] (agonist: LPS (TLR4) 0.1 ug/mL).
Regarding `CCOCC(O)COc1ccc(NC(=O)CC[S+](C)C)cc1` (configuration not stated), the “IRF Lucia reporter activity” value in the assay on RAW-Dual [3] (setting [5]) is 0.715.
Consider `O=C(CCCCCCNC(=O)c1cnc(N(c2ccccc2)c2ccccc2Cl)nc1)NO` (library stock concentration (final ~1000-fold dilution): 10 mM), for which the “IRF Lucia reporter activity” value came to 0.0412 in the assay on RAW-Dual [2] (setting [4]) and 0.506 in the assay on RAW-Dual [2] (agonist: LPS (TLR4) 0.1 ug/mL).
For the molecule `COc1cc2nc(N3CCCN(C)CC3)nc(NC3CCN(Cc4ccccc4)CC3)c2cc1OC.Cl.Cl.Cl` (library stock concentration (final ~1000-fold dilution): 10 mM), the entries for the “IRF Lucia reporter activity” value in the assay on RAW-Dual [2] (setting [4]) and in the assay on RAW-Dual [2] (agonist: LPS (TLR4) 0.1 ug/mL) were 0.0149 and 0.0762, respectively.
Consider `COc1cc(O)c2c(=O)cc(-c3ccc(O)c(O)c3)oc2c1` (library stock concentration (final ~1000-fold dilution): 10 mM), for which the “IRF Lucia reporter activity” value stood at 0.031 in the assay on RAW-Dual [1] (setting [4]) and 0.362 with RAW-Dual [1] (agonist: LPS (TLR4) 0.1 ug/mL).
In the case of `Br.Cc1ccc(C(=O)Cn2c3c(sc2=N)CCCC3)cc1`, the “IRF Lucia reporter activity” value with RAW-Dual [3] (setting [5]) was 1.08.
For `Br.Cc1ccc(C(=O)Cn2c3c(sc2=N)CCCC3)cc1` (library stock concentration (final ~1000-fold dilution): 10 mM), the “IRF Lucia reporter activity” value in the assay with RAW-Dual [1] (setting [4]) amounted to 0.943; in the assay with RAW-Dual [1] (agonist: LPS (TLR4) 0.1 ug/mL) it was 0.956.
As for `COc1cc2c3cc1Oc1c(OC)c(OC)cc4c1C(Cc1ccc(O)c(c1)Oc1ccc(cc1)CC3N(C)CC2)N(C)CC4` (configuration not stated) (library stock concentration (final ~1000-fold dilution): 10 mM), the “IRF Lucia reporter activity” value in the assay with RAW-Dual [1] (setting [4]) came to 0.225; with RAW-Dual [1] (agonist: LPS (TLR4) 0.1 ug/mL), 1.17.
